Data reported in PubChem BioAssay (NCI).
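Growth conditions: 96-well plates. Treatment: test compound, 48 hours, 5 concentrations. Analysis: linear interpolation between bracketing concentrations; unreached endpoints set to highest concentration. GI50 is the concentration that inhibits growth by half. Definition used: TGI = concentration required for complete inhibition of growth.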

System: NCI-H322M lung
Assay: growth of human tumour cells (NCI), 48 h

CC[C@]12C=CCN3CC[C@]4(C(=C(C(=O)OC)C1)Nc1cc5c(cc14)[C@@H]1[C@H](O5)[C@@H](O)[C@@]4(CC)CC(C(=O)OC)=C5Nc6cc(O)ccc6[C@@]56CCN1C46)C32 (some centres not stated)
GI50: 0.197 µM
TGI: 2.79 µM
